Reference: the supplement of paper PMC3334620
In all, about 33,000 sequences were measured (“E-score (-0.5 to 0.5)”: median about -0.036, highest 2% from about 0.37 on). This is one part of the list.

biological target: T1, Yer064c (UniProt P40041); assay: PBM E-score (8-mer binding enrichment) (E-score (-0.5 to 0.5)); higher = stronger / more preferred TF binding; most listed sequences are background and not binding sites; details: protein concentration: 200 nM; construct: GST-full length
T1 sequence: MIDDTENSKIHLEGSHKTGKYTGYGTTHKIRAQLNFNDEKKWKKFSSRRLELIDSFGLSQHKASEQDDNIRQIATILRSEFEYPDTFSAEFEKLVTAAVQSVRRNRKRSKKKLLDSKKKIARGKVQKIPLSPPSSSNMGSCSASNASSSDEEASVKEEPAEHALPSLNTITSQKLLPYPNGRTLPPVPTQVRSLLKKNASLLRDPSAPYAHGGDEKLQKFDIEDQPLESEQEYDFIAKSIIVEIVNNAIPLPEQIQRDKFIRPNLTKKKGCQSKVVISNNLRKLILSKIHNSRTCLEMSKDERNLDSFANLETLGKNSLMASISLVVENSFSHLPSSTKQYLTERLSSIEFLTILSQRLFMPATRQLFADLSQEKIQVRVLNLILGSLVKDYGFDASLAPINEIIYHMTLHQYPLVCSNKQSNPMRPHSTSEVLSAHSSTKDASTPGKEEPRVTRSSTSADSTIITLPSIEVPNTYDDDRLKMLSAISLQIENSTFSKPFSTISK
Summary of the method: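 Full-length yeast transcription factors or their DNA-binding domains, GST-tagged and expressed with PURExpress, were applied at about 100-200 nM to universal all-10-mer Agilent arrays. These arrays had been made double-stranded by primer extension on fresh or once-stripped slides. Detection used fluorescent anti-GST, normalisation used masliner, and E-scores for ungapped eight-base words pooled with reverse complements came from the Universal PBM Analysis Suite.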

In order of rising “PBM E-score” value:
1. CCCCCAGA  -0.413
2. CCGGTGCC  -0.347
3. ATGCCATC  -0.298
4. CCCTGTGC  -0.285
5. GTATGCCA  -0.283
6. AAGGGGCA  -0.281
7. CGGTCCGC  -0.28
8. AGACAAGC  -0.272
9. CATAGGCG  -0.266
10. ACCTAGCC  -0.262
11. GCATATAC  -0.259
12. ACGGGCAT  -0.24
13. CCCTTTCC  -0.239
14. ACCTTGCA  -0.235
15. AGGCCATC  -0.231
16. ACGCGGTA  -0.227
17. ATTGCTCC  -0.217
18. TGATACCA  -0.215
19. GTCCACAA  -0.214
20. CCTGACCG  -0.197
21. AAGTAATA  -0.197
22. ACTTTCCC  -0.192
23. CCGGGTGC  -0.19
24. CAGTCCGG  -0.187
25. CATTCGCC  -0.185
26. CGACCCAG  -0.182
27. CTCCATTC  -0.173
28. GTATAGCA  -0.172
29. ATGGCCAG  -0.17
30. GGGCAAAA  -0.154
31. CCCTTTTC  -0.151
32. TCGATGCA  -0.151
33. CCAAGAAC  -0.15
34. ATTGCGTG  -0.15
35. AAACGCTC  -0.148
36. GAGAGATC  -0.146
37. ACCCTACT  -0.145
38. CCTCAAGA  -0.142
39. CGCGTAAC  -0.139
40. CAAAAAGG  -0.139
41. AGCCGGCC  -0.134
42. CTACGGTC  -0.133
43. ACCAGCGG  -0.133
44. CCGCCTAC  -0.132
45. ATTGCGTC  -0.128
46. ATATCCGC  -0.126
47. AACAGACC  -0.124
48. GGTCGAGA  -0.122
49. AGTTGGTG  -0.119
50. CTTCTCAC  -0.119
51. TCCGTAAA  -0.117
52. GTACGGAA  -0.113
53. CGTTATCC  -0.11
54. ACCACAAG  -0.107
55. GGGGTTTA  -0.106
56. AGCCGGCG  -0.103
57. CAGGCCGA  -0.102
58. GAACGCTA  -0.101
59. CCCAAAAA  -0.0974
60. ATGTCGAG  -0.0948
61. ACGATCCG  -0.0916
62. CACGGTCA  -0.0911
63. CGGTCAGA  -0.0902
64. AGAGGATC  -0.0859
65. GCAGGGAC  -0.0853
66. CGTAATTC  -0.0844
67. TACGGGGA  -0.0803
68. CTTGCAGC  -0.0777
69. GCAAGCTA  -0.0761
70. AGCAGTTC  -0.0752
71. ATCGCCGA  -0.0721
72. TACCCGTA  -0.0721
73. CAGCCTGG  -0.0683
74. CAGTTGCC  -0.0655
75. CCTCATAA  -0.0646
76. AGCGCTCG  -0.0635
77. ATCGGATG  -0.0626
78. CCCTCGGA  -0.0577
79. CAACTCTG  -0.0555
80. AGGTAACT  -0.0493
81. CGTTATAA  -0.0476
82. GCTAGAGC  -0.0433
83. GTAGAGCA  -0.0431
84. ATCGCCCA  -0.0429
85. AGGCTGTG  -0.042
86. AACGCGGT  -0.0415
87. CACCTACA  -0.0403
88. CGTAGCAC  -0.0396
89. CTCGGATC  -0.036
90. CTCCTACC  -0.0279
91. AAGCTTGA  -0.0274
92. ATCTTTAC  -0.0262
93. ACTTGCAG  -0.0251
94. AGTTGTTC  -0.0226
95. GCCCAAAC  -0.0218
96. ACCTACTC  -0.0206
97. AAAGAGAA  -0.0202
98. CACCCAAC  -0.0191
99. AGAGAAGA  -0.0164
100. GCGGCGAC  -0.0157
101. AGTTCAAT  -0.0152
102. CTAATGTC  -0.0148
103. AGCGAAAA  -0.0104
104. AACCCGGA  -0.008
105. CTCGGGGC  -0.00751
106. ATATCGGA  -0.00073
107. CCACCGGA  -0.00039
108. GCACACAC  0.00172
109. CCGTGATC  0.00687
110. CCTCGCAC  0.00701
111. CAATACTG  0.0129
112. ACCTAATG  0.0141
113. CTTAACCC  0.0143
114. ACTCTGGG  0.0199
115. TACACCTA  0.0213
116. CAGCGCTC  0.0249
117. GAAATATC  0.0323
118. AGACTGTG  0.0326
119. AAATGGAC  0.0357
120. CACAGTAC  0.0375
121. CTGACGTC  0.0382
122. AATTGGGT  0.0392
123. GCGTACAC  0.0428
124. ACCAACAA  0.0475
125. ATTAAAGC  0.0483
126. CCTTCCAA  0.049
127. ACAACGAT  0.0529
128. ATAAGCTA  0.0582
129. AAATCGAC  0.0698
130. AAAAGGGT  0.0701
131. GTTCAGTA  0.0775
132. ATCAGCCA  0.0788
133. AGAATCCC  0.0788
134. CTTCCTTA  0.0831
135. CTCAACAG  0.0876
136. CACAACAC  0.095
137. ATTAGATC  0.0994
138. GATGTTGA  0.102
139. AGTCCCCA  0.104
140. CTTCGCGA  0.105
141. ACACGACA  0.106
142. AAAGATTT  0.107
143. CAATCTTA  0.11
144. TTGAAAAA  0.117
145. TCGGATAA  0.118
146. TCTTATAA  0.12
147. ATGGATTA  0.121
148. TCCTGAGA  0.122
149. AACTTATG  0.124
150. ACAACCAC  0.131
151. CGCCAGTC  0.135
152. ACGACGAA  0.139
153. CTTGTTTA  0.141
154. CTTCGGAC  0.145
155. TCACTCCA  0.152
156. ATCATTGC  0.154
157. CAAGCTGA  0.161
158. TCTGACCA  0.162
159. TAATCGTA  0.163
160. ACATGGCT  0.163
161. ACTACAAA  0.169
162. AACGTAAG  0.186
163. TTAGCTAA  0.19
164. TCAACGAA  0.193
165. ACTCTACT  0.202
166. AGTATGTC  0.205
167. AAAGTCTT  0.217
168. GATTCTGA  0.223
169. TCAGGTAA  0.258
170. AAGTCAGA  0.341
171. AAATCATT  0.359
172. AACTGACT  0.404
